Measurements reported in PubChem BioAssay AID1259400 (National Center for Advancing Translational Sciences (NCATS), 2018).
Several values for one entry are separate records, joined by “and”; a condition that tells them apart may be missing. Equal entries are not always repeated. Screen size: about 350,000 compounds; about 2,100 (0.6%) were called active. Inconclusive means that the source gave no clear call. Such entries were picked first, then a sample of the others.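 The calls were made as follows: active = activity change of -60% or lower, but not beyond a set lower limit; inconclusive = change between -60% and -40%, or beyond the set limit; inactive = change above -40%.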

molecular target: Relaxin receptor 1 (Homo sapiens) (UniProt Q9HBX9); assay: qHTS Assay for Antagonists of the Relaxin Receptor RXFP1; conditions: HEK293-RXFP1, relaxin-stimulated cAMP HTRF, 30 min; at 57.5 µM; stronger effect = lower value
% is scaled to controls: 0 for no effect and ±100 for the full control effect.

UniProt Q9HBX9, sequence (Q9HBX9 whole entry, looked up): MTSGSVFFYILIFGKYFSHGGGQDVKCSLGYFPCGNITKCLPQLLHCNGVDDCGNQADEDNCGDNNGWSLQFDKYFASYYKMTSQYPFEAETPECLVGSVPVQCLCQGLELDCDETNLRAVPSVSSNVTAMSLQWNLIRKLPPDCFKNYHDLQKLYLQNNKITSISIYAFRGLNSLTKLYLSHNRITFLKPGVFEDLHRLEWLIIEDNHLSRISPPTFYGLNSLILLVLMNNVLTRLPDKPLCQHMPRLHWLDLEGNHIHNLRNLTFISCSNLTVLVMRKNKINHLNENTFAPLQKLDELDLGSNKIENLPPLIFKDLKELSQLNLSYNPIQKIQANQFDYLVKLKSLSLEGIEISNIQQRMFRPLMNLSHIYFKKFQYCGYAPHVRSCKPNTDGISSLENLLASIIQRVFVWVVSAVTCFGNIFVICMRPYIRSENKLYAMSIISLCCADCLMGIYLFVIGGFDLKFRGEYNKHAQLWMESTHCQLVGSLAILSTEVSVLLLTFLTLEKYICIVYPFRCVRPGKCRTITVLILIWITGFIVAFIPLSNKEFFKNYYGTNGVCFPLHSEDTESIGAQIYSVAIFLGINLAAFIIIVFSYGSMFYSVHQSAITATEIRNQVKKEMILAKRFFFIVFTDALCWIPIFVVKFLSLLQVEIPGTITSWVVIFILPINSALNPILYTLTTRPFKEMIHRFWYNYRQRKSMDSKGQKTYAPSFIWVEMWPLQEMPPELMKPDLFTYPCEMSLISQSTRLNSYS

Structure (SMILES)	activity change, negative = inhibition
CCCc1ccc(NC(C)C(=O)Nc2ccc(S(=O)(=O)N3CCOCC3)cc2)cc1 (configuration not stated)	inconclusive: -46.3%
O=C(CNC(=O)c1ccccc1F)NCC(c1cccs1)N1CCOCC1 (configuration not stated)	inactive: 1.2%
CC(C)c1nnc(NC(=O)c2nc(S(=O)(=O)Cc3ccccc3)ncc2Cl)s1	active: -71.9% and inconclusive: -48.2%
CCOC(=O)C1(CCCc2ccccc2)CCN(Cc2cn(CC)nc2C)CC1	inactive: -4.27%
CCn1c(C)nc2cc(C(=O)N/N=C/c3cccc(O)c3O)ccc21	inactive: 0.272%
O=C(Cc1ccc(S(=O)(=O)N2CCOCC2)s1)Nc1ccccc1N1CCOCC1	inactive: -0.921%
Cc1ccc(N2CCN(C(=O)N3CCOCC3)CC2)cc1C	inactive: 4.52%
CCN1CCCC(OC(=O)c2cc(-c3ccc(C)cc3)nc3ccccc23)C1 (configuration not stated)	inconclusive: -43.4%
CCOC(=O)C(=O)Nc1sc(C(=O)N2CCOCC2)c(C)c1C#N	inactive: -30.6%
C=Cc1ccc(Cn2c(C(=O)O)c(CNCc3ccc(F)cc3)c3ccc(C)cc32)cc1	inconclusive: -51.1%
COc1ccc(-c2csc3nc(C)nc(N4CCN(C(C)=O)CC4)c23)cc1OC	inactive: -12.4%
O=C(Nc1cccc(-c2nc3cccnc3s2)c1)c1cccnc1Cl	inconclusive: -48%
CN(C(=O)CSc1nnc(NC(=O)Nc2ccccc2)s1)c1ccccc1	inactive: -2.91%
CN(C)CCCN(C(=O)C1=COCCO1)c1nc2ccc(Br)cc2s1	inconclusive: -57.9%
CCOC(=O)Cc1c(C)c2c(C)[nH]nc2oc1=O	inactive: -3%
CCN1CCN(Cc2c(O)ccc3c(C)c(-c4ccc(OC)cc4)c(=O)oc23)CC1	inactive: -0.369%
Cc1ccc(C(C)(c2ccc(N)cc2)c2ccc(N)cc2)cc1	inconclusive: -42.4%
Cc1ccc(Nc2nc(NCc3ccco3)c3ccccc3n2)cc1	inconclusive: -59.4%
Cc1cc(NC(=O)CCN2CCN(C/C=C/c3ccccc3)CC2)ccc1Br	inconclusive: -54.3%
CC(C)(C)C(Cn1ccnc1)NC(=O)c1ccc2nc(C3CC3)oc2c1 (configuration not stated)	inactive: -5.43%
CCO[C@@H]1O[C@H](C(COCc2ccccc2)OCc2ccccc2)[C@H](OCc2ccccc2)[C@H]1O (some centres not stated)	inconclusive: -43.7%
COC(=O)c1c(NC(=S)NN2CCN(C)CC2)sc2c1CCC(C)C2 (configuration not stated)	inconclusive: -40.9%

Structure (SMILES)	activity change, negative = inhibition
Oc1ccc(C2Nc3cccc4cccc(c34)N2)c(O)c1	inconclusive: -44.7%
Cc1onc(-c2c(F)cccc2Cl)c1C(=O)N1CCOC12CCCCC2	inconclusive: -40.7%
Cc1nn(C)c(C)c1N1C(=O)c2cccc3c(Br)ccc(c23)C1=O	inactive: 5.42%
COc1ccc(/C=N/NC(=O)c2ccncc2)cc1CN1CCCc2ccccc21	inconclusive: -41.5%
Cc1[nH]c2ccccc2c1/C=N/Nc1nc2ccccc2[nH]1	inconclusive: -40.8%
Cc1ccc(/C(O)=C2/C(=O)C(=O)N(c3ccccn3)C2c2ccc([N+](=O)[O-])cc2)cc1 (configuration not stated)	inactive: 4.27%
COc1cc(CN2CCc3nc(N4CCN(c5ccccn5)CC4)ncc3C2)cc(OC)c1OC	active: -78.6%
Fc1ccc(CSc2nc(NCc3ccccc3)c3ccccc3n2)cc1	inconclusive: -49.6%
Cc1[nH]c2ccccc2c1SCCNC(=O)c1ccc(Br)o1	active: -82%
N/C(Cc1ccc(Cl)cc1Cl)=N\OC(=O)c1ccc(Br)o1	inconclusive: -58.6%
CCOC(=O)c1ccc(Nc2c(-c3cccc(O)c3)nc3nc[nH]n23)cc1	inactive: -3.85%
O=C(CCCCC(=O)NN=Cc1ccc(Cl)cc1)NN=Cc1ccc(Cl)cc1	inactive: -6.27%
CCOc1cc(-c2ccc(OC(=O)c3ccc(C)cc3)c(OC)c2)cc(=O)c2c(C)oc(C)c12	active: -64.1%
O=[N+]([O-])c1ccc2ncnc(Nc3ccc4c(c3)OCCO4)c2c1	inactive: -10.9%
CC(C)c1ccc2oc3nc(N)c(C(=O)O)cc3c(=O)c2c1	inconclusive: -48.2%
O=C(O)C(Cc1ccc(O)cc1)N1C(=O)c2c(Cl)c(Cl)c(Cl)c(Cl)c2C1=O (configuration not stated)	active: -61.5%
O=C(CN(CC1CCCO1)C(=O)CNS(=O)(=O)c1ccc(Cl)cc1)NC1CCCCC1 (configuration not stated)	inactive: 13.4%
CCOCCCn1c(SCC(=O)Nc2ccc(C)cc2)nc2ccccc2c1=O	inactive: -4.16%
O=C(CN1C(=O)C2CCCCC2C1=O)Nc1cccc([N+](=O)[O-])c1 (configuration not stated)	inconclusive: -46.1%
S=c1[nH]nc(-c2cc(-c3ccccc3)n[nH]2)n1/N=C/c1c(Cl)cccc1Cl	inconclusive: -44.4%
COc1ccc(/C=N/NC(=O)c2ccccc2OCc2ccccc2)c(OC)c1	inconclusive: -52.3%
CC(C)c1ccccc1OCC(=O)Nc1ccc2[nH]ncc2c1	inconclusive: -56%

Structure (SMILES)	activity change, negative = inhibition
Cc1ccc(Nc2cc(C)nc3ccc(C)cc23)cc1	active: -81.6%
COc1ccccc1NC(=S)NCc1ccccn1	inconclusive: -47%
O=C(O)CC/C(=N\NC(=O)CNC(=O)c1cccc(Cl)c1)c1ccccc1	inconclusive: -52.1%
Cc1cc(C)c(C(=O)N2CCCC(Nc3ccc(F)cc3)C2)o1 (configuration not stated)	inactive: 0.923%
Fc1cccc(-n2cc(-c3ccccc3)c3c(=S)nc[nH]c32)c1	inconclusive: -55.1%
CN(CCOc1cccc(C(F)(F)F)c1)Cc1ccccc1	inconclusive: -53.8%
C=Cc1ccc(Cn2c(C(=O)O)c(CNCc3ccccc3)c3ccc(C)cc32)cc1	inconclusive: -43.9%
CC12CCC(=O)N1C(C(=O)Nc1nc(-c3cc(F)ccc3F)cs1)CS2 (configuration not stated)	inconclusive: -42.8%
CC(Oc1cccc(Cl)c1)C(=O)Nc1cc(Cl)ccc1N1CCOCC1 (configuration not stated)	inconclusive: -45.3%
CCOc1cc(C2Nc3cccc4cccc(c34)N2)ccc1O	inconclusive: -53.3%
COc1ccc(OC)c(NC(=O)c2nc3ccccc3s2)c1	inactive: 15.5%
O=C(/C=C/c1ccccc1)CC(O)(c1ccccc1)C(F)(F)F (configuration not stated)	inconclusive: -44.3%
c1ccc(-c2nnc(N3CCN(c4ccccn4)CC3)c3ccccc23)cc1	inactive: -30.2%
CCCc1cc(C(=O)Nc2ccc(Cl)cn2)cs1	inconclusive: -40.3%
Cc1cc(C)nc(NS(=O)(=O)c2ccc(NC(=O)COc3ccc(C(C)(C)C)cc3)cc2)n1	active: -85.6%
COC(=O)c1c(-c2ccc(Cl)cc2)noc1N1CCN(c2cccc(C(F)(F)F)c2)CC1	inactive: -3.77%
COC(=O)C1=C(C)NC(C)=C(C(=O)OCCN2CCN(C(c3ccccc3)c3ccccc3)CC2)C1c1cccc([N+](=O)[O-])c1 (configuration not stated)	inconclusive: -50.3%
CC1CCN(S(=O)(=O)c2ccc(C(=O)OC(C)C(=O)N(C)C3CCCCC3)cc2)CC1 (configuration not stated)	inconclusive: -58.4%
Cc1ccccc1CS(=O)(=O)c1ncc(Cl)c(C(=O)Nc2ccc(F)cc2)n1	active: -104%
CCN(Cc1ccccc1)Cc1c(O)ccc2c(=O)c(-c3ccccc3Cl)c(C(F)(F)F)oc12	inactive: -7.34%
CC(=O)Oc1ccc(OC(C)=O)c(SCCCCCCl)c1	inconclusive: -59.3%
Cc1ccc(N(Cc2cccs2)C(=O)c2ccc(Br)o2)cc1	active: -85.4%

Structure (SMILES)	activity change, negative = inhibition
CCn1cc(C(=O)NC(C)C23CC4CC(CC(C4)C2)C3)cn1 (configuration not stated)	inactive: -5%
O=C(NCc1ccc(Cl)cc1)C1CCCN(c2nc3ccccc3n3cccc23)C1 (configuration not stated)	active: -64.2%
Cc1ccc(S(=O)(=O)NCc2ccc3c(c2)cc(C)n3C)cc1	inactive: -2.03%
CCOC(=O)C1=C(Cc2ccc(OC)cc2)C(=O)c2ccccc2C1=O	inconclusive: -49.1%
CCc1ccc2c(c1)Sc1ccccc1CC2N1CCN(C)CC1 (configuration not stated)	inconclusive: -44%
Cc1ccc(C(C(=O)NC2CCCC2)N(C(=O)c2csnn2)C2CC2)cc1 (configuration not stated)	inconclusive: -58.5%
Nc1ccn(Cc2cccc(Cl)c2)n1	inactive: -13%
Cc1cc(N2CCN(S(=O)(=O)c3ccc(Cl)c(Cl)c3)CC2)c2ccccc2n1	inactive: 1.05%
CSc1nc2ccc(NC(=O)c3c(-c4ccccc4)noc3C)cc2s1	inconclusive: -56.6%
O=C(Nc1ccccc1)c1n[nH]c(Cn2cncn2)n1	inactive: 6.09%
Cc1ccc(C)c(-c2csc(N/N=C/c3ccco3)n2)c1	inconclusive: -45.5%
Cc1sc(-c2ccccn2)nc1OC(=O)c1ccc(F)cc1F	inconclusive: -53.2%
S=c1[nH]nc(-c2ccc(Cl)cc2)n1CC1CCCO1 (configuration not stated)	inconclusive: -49.6%
CCOC(=O)CCc1c(C)nc(SCCCn2c(=O)[nH]c3ccccc32)c(C#N)c1C	inconclusive: -58.1%
Cc1ccc2c(c1)N(C(=O)Nc1cccc3c1CCCC3)CC(C)O2 (configuration not stated)	inconclusive: -58.6%
CCOc1cc2[nH]c(=S)n(CCCC(=O)NCc3ccco3)c(=O)c2cc1OCC	inconclusive: -45.2%
C=CCn1c(SC(C)C(=O)NCCC2=CCCCC2)nc2ccccc2c1=O (configuration not stated)	inconclusive: -47.8%
Cc1nn2cc(-c3ccc(Cl)cc3)cnc2c1Cl	inconclusive: -40.1%
CN1CCN(c2nc(-c3cccnc3)nc3ccccc23)CC1	inactive: -16.6%
O=C(Nc1ccc2nc(SCC(=O)N3CCOCC3)sc2c1)c1ccccc1Cl	active: -63.7%
O=C1/C(=C\c2ccccc2)SC(=S)N1CCC(=O)N1CCCCC1CCO (configuration not stated)	inconclusive: -42.9%
